Test results reported in paper PMC4336329 (PLoS ONE, 2015).
The whole screen tested about 310,000 compounds, of which about 14,000 (4.5%) showed an effect of 50% or more. Effects have a minus sign here. The list shows a part of the results.

Target: human ether-à-go-go-related gene (hERG) potassium channel (human, UniProt Q12809)
Experiment: primary screen, population patch clamp on CHO cells stably expressing hERG
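Further: peak tail current of the secondary pulse compared with the same well before compound.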

human ether-à-go-go-related gene (hERG) potassium channel, sequence (Q12809 whole entry, looked up): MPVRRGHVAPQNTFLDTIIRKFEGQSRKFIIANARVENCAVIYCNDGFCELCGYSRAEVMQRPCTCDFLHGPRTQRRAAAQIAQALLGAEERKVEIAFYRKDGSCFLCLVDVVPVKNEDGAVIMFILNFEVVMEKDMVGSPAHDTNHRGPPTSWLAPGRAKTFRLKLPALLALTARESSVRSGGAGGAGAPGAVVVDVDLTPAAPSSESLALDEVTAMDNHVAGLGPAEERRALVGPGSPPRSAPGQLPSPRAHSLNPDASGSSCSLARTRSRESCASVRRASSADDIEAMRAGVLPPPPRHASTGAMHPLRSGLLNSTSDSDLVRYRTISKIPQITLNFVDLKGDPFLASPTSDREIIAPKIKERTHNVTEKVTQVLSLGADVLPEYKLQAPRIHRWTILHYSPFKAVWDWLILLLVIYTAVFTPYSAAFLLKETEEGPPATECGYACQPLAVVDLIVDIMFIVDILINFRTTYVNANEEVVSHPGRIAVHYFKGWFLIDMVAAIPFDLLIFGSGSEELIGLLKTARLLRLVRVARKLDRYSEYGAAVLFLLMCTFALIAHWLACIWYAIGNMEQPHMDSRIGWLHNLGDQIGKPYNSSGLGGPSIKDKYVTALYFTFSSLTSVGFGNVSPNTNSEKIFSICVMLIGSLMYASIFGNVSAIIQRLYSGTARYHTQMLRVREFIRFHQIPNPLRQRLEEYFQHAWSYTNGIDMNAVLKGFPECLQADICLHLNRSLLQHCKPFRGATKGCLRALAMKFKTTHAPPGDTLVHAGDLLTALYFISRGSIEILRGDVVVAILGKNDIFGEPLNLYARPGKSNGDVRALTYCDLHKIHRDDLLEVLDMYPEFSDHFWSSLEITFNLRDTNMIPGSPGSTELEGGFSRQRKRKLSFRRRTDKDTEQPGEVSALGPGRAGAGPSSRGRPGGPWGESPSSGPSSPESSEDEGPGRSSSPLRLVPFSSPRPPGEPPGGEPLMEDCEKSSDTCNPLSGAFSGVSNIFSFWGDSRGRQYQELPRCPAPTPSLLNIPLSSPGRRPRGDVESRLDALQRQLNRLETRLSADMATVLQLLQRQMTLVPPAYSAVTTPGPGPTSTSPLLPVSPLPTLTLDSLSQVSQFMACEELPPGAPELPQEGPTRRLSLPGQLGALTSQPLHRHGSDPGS

Row | Compound | hERG current change (%, negative = inhibition) at 10uM
1 | COC(=O)C1CCN(C(=O)COC(=O)Cc2c[nH]c3ccccc23)CC1 | 3.1%
2 | CCOc1cccc(=O)c2c(C)n(-c3ccc(C(=O)O)cc3)c(C)c12 | 32%
3 | CC1CN(C(=O)CCC(=O)N2CCN(c3cccc(C(F)(F)F)c3)CC2)c2ccccc2O1 (stereo not drawn) | -31.3%
4 | CC1(C)Cc2c(cnn2-c2ccc(F)cc2)C(NC(=O)c2ccoc2)C1 (stereo not drawn) | -89.1%
5 | O=C(NC(C(=O)c1ccccc1)N1CCCCC1)c1ccccc1 (stereo not drawn) | -7.34%
6 | O=C(CCc1nnc2n(Cc3ccc(F)cc3)c(=O)c3ccccc3n12)NCCCN1CCOCC1 | -16.4%
7 | COc1cc(C(=O)NC2CCN(Cc3ccccc3)CC2)cc(Cl)c1OC | -44.3%
8 | CC(OC(=O)/C=C/c1ccco1)C(=O)NC1CCCCC1C (stereo not drawn) | -3.2%
9 | CC1(c2ccccc2)NC(=O)N(CC(=O)N2CCOCC2)C1=O (stereo not drawn) | 3.77%
10 | O=C(CCCSc1ccc(Cl)cc1)Nc1ccccc1O | 18.1%
11 | O=C(c1ccc(F)cc1)N1CCN(c2ccc([N+](=O)[O-])c(N3CCCCC3)c2)CC1 | -15.3%
12 | Cc1cccc(C)c1NC1=C(Cl)C(=O)OC1OC(C)C (stereo not drawn) | 21.2%
13 | O=C(Nc1nccs1)c1cn2ccccc2n1 | 7.71%
14 | COc1ccc(C(=O)CCC(=O)NCCc2c[nH]c3ccccc23)cc1 | 34.4%
15 | CC(=O)N1CCN(c2ccnc3cc(Cl)ccc23)CC1 | -50.4%
16 | Nc1ccc(C(=O)OCc2nc3c(ccc4ccccc43)[nH]2)cc1 | 14.6%
17 | O=C(c1ccccc1OC(F)F)N1CCN(S(=O)(=O)c2ccc3c(c2)OCCCO3)CC1 | -26.8%
18 | CCOc1cc(/C=N/NC(=O)c2cccnc2)ccc1O | 10%
19 | CC(C)Oc1ccc(OCCCN2CCCCCC2)cc1.O=C(O)C(=O)O | -54.8%
20 | Cc1noc(C)c1C(=O)N1CCN(Cc2ccccc2)CC1 | 10.4%
21 | CCOc1ccc(NC(=O)C2CCCN(C(=O)Nc3ccccc3)C2)cc1 (stereo not drawn) | 2.35%
22 | CC(=O)c1c(C)[nH]c(C(=O)COC(=O)c2cc(S(=O)(=O)N(C)c3ccccc3)ccc2Cl)c1C | 3.37%
23 | N=c1c(C(=O)NCc2ccco2)cc2c(=O)n3ccccc3nc2n1CCc1ccccc1 | -76.7%

Row | Compound | hERG current change (%, negative = inhibition) at 10uM
24 | O=C(NCCc1ccc(Cl)cc1)C1CCN(S(=O)(=O)N2CCCC2)CC1 | -52.3%
25 | O=C(COc1ccc(Cl)cc1Br)N1CCN(S(=O)(=O)c2ccccc2)CC1 | -9.19%
26 | CSc1ccccc1NC(=O)c1ccc(CN2CCOCC2)cc1 | 4.69%
27 | O=S(=O)(c1ccc(F)cc1)c1nc(-c2ccccc2F)oc1N1CCCCC1 | -20%
28 | Cc1cc(C(=O)O)ccc1-c1ccc(CO)o1 | 24.3%
29 | Cc1ccc(OCC(=O)Nc2ccc(S(=O)(=O)N3CCCCC3)cc2)c([N+](=O)[O-])n1 | 10.4%
30 | CCNC(=O)c1cc2ccccc2o1 | 5.18%
31 | Cc1ccc(Cn2c(CN3CCN(C(=O)c4ccco4)CC3)nc3c2c(=O)n(C)c(=O)n3C)cc1 | -54.2%
32 | O=C(O)c1nn(Cc2nc3ccccc3o2)c(=O)c2ccccc12 | 20.6%
33 | N#Cc1ccccc1OCC(=O)OCC(=O)NC1CCS(=O)(=O)C1 (stereo not drawn) | -6.74%
34 | COc1ccc2nc(NC(=O)c3cccc(S(=O)(=O)N4CCOCC4)c3)sc2c1 | -7.11%
35 | CCc1ccccc1NC(=O)COC(=O)c1c(C)nsc1NC | -2.87%
36 | CCN(CC(=O)Nc1c(F)cccc1F)C(=O)CCNC(=O)c1ccc([N+](=O)[O-])cc1 | -55.4%
37 | COc1ccc(N=Cc2cc3c(cc2O)OC(N)=C(C#N)C3c2ccccc2)cc1 (stereo not drawn) | 7.37%
38 | O=C1NC(=O)C2(COC(c3cccnc3)OC2)S1 (stereo not drawn) | 16.1%
39 | O=C1S/C(=C\c2ccccn2)C(=O)N1Cc1ccccc1F | 9.45%
40 | COc1cccc(N2[C@@H](CC(C)=O)c3ccc(/C=C/C(C)=O)cc3S2(=O)=O)c1 | -11.7%
41 | NC1=NC(=O)/C(=C\c2ccco2)S1 | 19.2%
42 | CC1CN(C(=O)c2ccccc2Oc2ccccc2)CC(C)O1 (stereo not drawn) | -6.99%
43 | CCC(C)c1ccc(O)c(NC(=O)c2cncc(Br)c2)c1 (stereo not drawn) | -15.4%
44 | Cc1ccc(CNC(=S)Nc2cc(C)ccc2OC(F)F)cc1 | 0.274%
45 | CSc1ncccc1C(=O)NC1CCCCCC1 | 39.2%
46 | Cc1ccc(N=Nc2ccc(O)c3ncccc23)cc1 | 3.33%

Row | Compound | hERG current change (%, negative = inhibition) at 10uM
47 | CC(=O)N1CCC(C(=O)Nc2ccccc2)(N(Cc2ccccc2)C(=O)c2cccnc2)CC1 | 16.1%
48 | Cc1nc(NC(=O)c2ccc(Br)o2)sc1C | -0.217%
49 | CCCn1c(SCC(=O)N2CCCC(C)C2)nnc1-c1cccnc1 (stereo not drawn) | -16.9%
50 | COc1cccc(NC(=O)CN(C)C(=O)Cn2[nH]c(=O)c3ccccc3c2=O)c1 | 25.4%
51 | NC(=O)C12CCCC(Br)(CCC1)C2 | 10.1%
52 | COc1ccc(C(=O)Nc2nncs2)c(OC)c1 | 7.19%
53 | CCC(C)[C@H](NC(=O)N1CCCC1)C(=O)OC (stereo partly drawn) | -0.198%
54 | COc1ccc(CN2CCCC(C(=O)Nc3cccc(-n4cccn4)c3)C2)cc1 (stereo not drawn) | -58.9%
55 | CCOC(CNc1cc(C)nc2c(-c3ccccc3OC)c(C)nn12)OCC | 8.64%
56 | O=C(CSc1nnc(-c2cccnc2)o1)Nc1cccc(F)c1 | -1.97%
57 | COc1cn(-c2ccccc2)nc1C(=O)Nc1ccc(C)cc1Cl | 17%
58 | Cc1ccc(S(=O)(=O)NC(=S)NC2CCCCC2)cc1 | 15.4%
59 | O=C(Nc1ccc(-c2nc3ccccc3[nH]2)cc1)c1ccccc1NS(=O)(=O)c1ccc(F)cc1 | -0.475%
60 | COc1ccc(S(=O)(=O)N2CCOC23CCN(C(=O)c2ccc(Cl)cc2Cl)CC3)cc1 | -68.9%
61 | Cc1ccc(NC(=O)COC(=O)C(CC(C)C)N2C(=O)C3CC=CCC3C2=O)c(C)c1 (stereo not drawn) | -6.2%
62 | O=c1o[nH]c(-c2ccccc2)c1-c1ccccc1 | 0.0608%
63 | O=C1CC(NS(=O)(=O)c2ccc([N+](=O)[O-])cc2)CN1c1ccc(Cl)cc1 (stereo not drawn) | -66.6%
64 | COc1ccc(NC(=O)CN(C)C(=O)COc2ccccc2Cc2ccccc2)cc1 | -29.1%
65 | CC(C)CC(NS(=O)(=O)c1cccc(C(=O)O)c1)C(=O)O (stereo not drawn) | 44.6%
66 | CC(Oc1ccc(F)cc1F)C(=O)NNC(=S)NCC1CCCO1 (stereo not drawn) | 9.12%
67 | CCN1CCS/C1=C/C=C/C1=[N+](CC)CCS1.[I-] | 24.7%
68 | C=CCN(C#N)c1nc(OC)nc(N2CCCC2)n1 | 9.23%
69 | O=C1NC(=O)C(c2cccs2)(c2cccs2)N1 | 16.1%

Row | Compound | hERG current change (%, negative = inhibition) at 10uM
70 | COc1ccccc1NC(=O)COC(=O)C12CC3CC(CC(Cl)(C3)C1)C2 | -4.28%
71 | Cc1ccc(CNC(=O)CCCCCNC(=O)N2CCn3c2nc2ccccc23)cc1 | -0.874%
72 | C#CCOCCOCCOCCNc1nc(N2CCN(C(=O)[C@H](CCCCN)n3cc(C(N)CC(C)C)nn3)CC2)nc(N2CCN(C(=O)[C@H](CCC(=O)O)n3cc(C(N)[C@H](C)CC)nn3)CC2)n1.Cl (stereo partly drawn) | 18.1%
73 | Cc1ccc(CNC(=O)N2CCN(C)CC2)cc1 | -2.54%
74 | CCC(C(=O)O)P(=O)(c1ccc(Cl)cc1)c1ccc(Cl)cc1 (stereo not drawn) | 18.4%
75 | O=C(CCCC(=O)NC1CCCC1)NC1CCCC1 | 6.45%
76 | CCOC1(NC(=O)c2ccccc2)C(C)=CC(=O)C=C1C | -21.6%
77 | CC1=CCC(C(=O)N/N=C/c2cccs2)C(c2ccc(F)cc2)C1 (stereo not drawn) | -14.9%
78 | Oc1ccc2[nH]ccc2c1 | 2.88%
79 | COc1cc2cc(CCOC(=O)c3ccco3)oc(=O)c2cc1OC | 8.37%
80 | O=C1CSC(c2ccncc2)N1Cc1ccco1 (stereo not drawn) | -1.73%
81 | CSC1=NCCN1S(=O)(=O)c1ccc(F)cc1 | -10.2%
82 | CC(OC(=O)C(NC(=O)c1ccco1)C(C)C)C(=O)Nc1ncc(Cl)cc1Cl (stereo not drawn) | -10.4%
83 | COc1ccc(N2C(=O)/C(=C3/C=CC=CN3C)SC2=S)cc1 | -9.89%
84 | COC(=O)N/N=C/c1cccnc1 | 9.58%
85 | CCOc1ccc(NC(=S)N/N=C(\C)Cc2ccc(OC)cc2)cc1 | 2.3%
86 | COc1ccc(S(=O)(=O)N(CC(=O)N2CCN(c3ccccc3)CC2)c2ccccc2)cc1 | 5.82%
87 | COc1ccc(-n2cnc3cc(N)ccc32)cc1 | 5.06%
88 | O=C(COC(=O)Cc1ccsc1)NCc1ccccc1 | 19.6%
89 | O=C(Nc1ccc2c(c1)nc1n2CCOC1)C1CCCCC1 | 6.14%
90 | Cc1cc(=O)n2c(n1)NC(Nc1cccc(C)c1C)=NC2c1ccccc1 (stereo not drawn) | 13.5%
